From the RNAGym collection of RNA variant scans (doi:10.1073/pnas.2313332121) come the findings set out here.

This sample is rich in variants without activity.

B1: TPR 5TU (parent)
chain: GGAUCUUCUCGAUCUAACAAAAAAGACAAAUCUGCCACAAAGCUUGAGAGCAUCUUCGGAUGCAGAGGCGGCAGCCUUCGGUGGCGCGAUAGCGCCAACGUUCUCAACUAUGACACGCAAAACGCGUGCUCCGUUGAAUGGAGUUUAUCAUG

This series covers variants of B1. Nature of the series: polymerase ribozyme fitness, log enrichment relative to wild type (log ratio); higher = more active; in vitro selection for triplet polymerase activity. The method in brief:
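Frozen incubation at −7 °C formed the core of a single, triplicate in vitro selection round applied to PCR-built, transcribed mutant libraries of each subunit of a heterodimeric triplet polymerase ribozyme. Extended constructs were gel-excised, captured with streptavidin beads and amplified by RT-PCR, and input and output libraries were Illumina-sequenced with a filter of ≥10 input reads and ≥1 read per output. Fitness is the logarithm of genotype enrichment relative to wild-type enrichment, with inverse-variance-weighted replicate averaging, and the logarithm is base 2.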
As to GGAUCUUCUCGAUCUAACAGCAAAGACAAAUCUGCCACAAAGCUUGAGCGCAUCUACGGAUGCCGAGGCGGCAGCAUUCGGUGGGGCGAUAGCGCCAACGUGCUCAACUAUGACACGCAAAACGCGUGCUCCGUUGAAUGGAGUUUAUCAAG [A20G A21C A49C U56A A64C C76A C85G U102G U151A], the “polymerase ribozyme fitness (log ratio)” value is ≤ -4.2.
GGAUCUUCUCGAUCUAACAGCACAGACAAAUCUGCCAUAAAGCUUGAGAGAAUCUUCGGAUGCAGAGGCGGCAGCCGUCGGUGGCGCGAUAGCGCCUACGUUCUCAACUAUGACACGCAAAACGCGUGCUCCGUUGAAUGGAGUUUAUCAUG [A20G A21C A23C C38U C51A U77G A97U]: the “polymerase ribozyme fitness (log ratio)” value is ≤ -4.2.
As to GGAUCUUCUCGAUCUAACAGAAAAGACAAUUCUGCCACAAAGCUUGAGAGCAAUUUCGGAUGCAGACGCGGCAGCCUUCGGUGGCGCGAUAGCGCCAACGUUCUCAACUUUGACACGCAAAACGCGUGCUCCGUUGAAUGGAGUUUAUCAUG [A20G A30U U53A C54U G67C A110U], the “polymerase ribozyme fitness (log ratio)” value was ≤ -4.2.
GGAUCUUCUCGAUCUAACAGAAAAGACAAAUCUUCCACAAAGCUUGAGAGCAUGUUCGGAUGCAGAGGCGGCAGCCUUCGGUGGCGCGAUAGCGCCAACGUUCUCAACUAUGACACGCAAAACGCGUGCUCCGUUGAAUGCAGUUUAUCAUG [A20G G34U C54G G141C]: the “polymerase ribozyme fitness (log ratio)” value is ≤ -4.2.
Then GGAUCUUCUCGAUCUAACACAAAAGACAAAUCUGCCACAAAGCUAGAGAGCAUCUUCGGAUGCAGAGGCGGCAGCCUUCGGUGGCGCGAUAGGGCCAACGUUCUCAACUAUGACACGCAAAACGCGUGCUCCGUUGAAUGGAGUUUAUCAUG [A20C U45A C93G], with ≤ -4.2; and GGAUCUUCUCGAUCUAACAGUAAAGACAAAUCUGCCACAAAACUUGAGAGCAUCUUCGGAUGCAGAGGCGGCAGCCUUCGGUAGCGCGAUUGCGCCAACGGUCUCAACUAUGACACGCAAAACGAGUGCUCCGUUGAAUGGAGUUUAUCAUG [A20G A21U G42A G83A A91U U101G C125A], with ≤ -4.2; and GGAUCUUCUCGAUCUAACAGAAAGGACAAAUCUGCCACAAAGCUUGAGAGCAUCUUCGGAUGCAGAGGCGGCAGCCUUCGGUGGCGUGAUAGCGCCAACGUUCUCAACUAUGACACGCAGAACGCGUGCUCCGUAGAAUGGAGUUUAUCAUG [A20G A24G C87U A120G U135A], with ≤ -4.2.
Then GGAUCUUCUCGAUCUAACAUAAAAGCCAAAUCUGACACAAAGCUUGAGAGCAUCUUAGGAAGCAGAGGCGGCAGCCUUCGGUGGCGCGAUUGCGCCAACGUUCUCAACUAUGACACGCAAAACGCGUGCUCCGUUGAAUGGAGUUUAUCAUG [A20U A26C C35A C57A U61A A91U], with ≤ -4.2; and GGAUCUUCUCGAUCUAACAUGAAAGACAAAUCUGCCACAAAGCUUGAGAGCAUCUUCGGAUGCAGAGGCGGCAACCUUUGGUGGAGCGAUAGCGCCAACGUUCUCAACUAUGACACGCAAAACGCGUGCUCCGUUGAAUGGAGUUUAUCAUG [A20U A21G G74A C79U C85A], with ≤ -4.2.
Then GGAUCUUCUCGAUCUAACAGAAAAGACAAAUCUGCCACAAAGCUUGAGAGCAUCUUCGGAUGCAGAGGCGGCAGCCUUCGGUGGGGCGAGAGCGCCAACGUUCUCAACUAUGACACGCAAAACGCGUGCUCCGUUGAAUGGAGUUUAUCAUG [A20G C85G U90G], with ≤ -4.2; and GGAUCUUCUCGAUCUAACACAAAAGACAAAUCUGCCACAAAGCCUGAGAGCAUCUUCGGAUGCAGAGGCGGCAGCCGUCGGUGGCGCGAUAGCUCCAACGUUCUCAACUAUGACACGCAAAACGCGUGCUCCGUUGAAUGGAGUUUAUCAUG [A20C U44C U77G G94U], with ≤ -4.2.
For GGAUCUUCUCGAUCUAACAGAAAAGACAAAUCUGCCACAAAGCUUGAGAGCAUCUUCGGCAGCAGAGGCGGCAGCCUUCAGUGGCGCGAUAGCGCCAACGUUCUCAACUAUGACACGCAAAACGGGUGCUCCGUUGAAUGGAGUUUAUCAUG [A20G A60C U61A G80A C125G], the “polymerase ribozyme fitness (log ratio)” value was ≤ -4.2.
Then GGAUCUUCUCGAUCUAACACAAAAGACAAAUCUGCCACAAAACUUGAGAGCAUCUACGGAUGCAGAGGCGGCAGCCUUCGGUAGCGCGAUAGCGCCAACGUUCUCAACUAUGACACGCAAAACGCGUGCUCCGUUGAAUGGAGUUUAUCAUG [A20C G42A U56A G83A], with ≤ -4.2.
Regarding GGAUCUUCUCGAUCUAACAGAAAACACAAAUCUGCCACAAACCUUGAGAGCAUCUUCGGAUGCAGAGGCGUCAGACUUCAGUGGCGCGAUAGCGCCAACGUUGUCUAAUAUGACACGCAAAACGCGUGCUCCGUUGAAUGGAGUUUAUCAUG [A20G G25C G42C G71U C75A G80A C103G A106U C108A], the “polymerase ribozyme fitness (log ratio)” value was ≤ -4.2.
Then GGAUCUUCUCGAUCUAACAGAAAAGACAAAUCUUCCACAAAGCUUGAAAGCAUCUUCGGAUGCAGAGACGGCAGCCUUCGGUGGCGCGAUAGCGCCAACGUUCUCAACUAUGACACGCAAAACGCGUGCUCCGUUGAAUGGAGUUUAUCAUG [A20G G34U G48A G68A], with ≤ -4.2.
Then GGAUCUUCUCGAUCUAACACAAAAGACAAAUCGGCCACAAAGAUAGAGAGCAUCUUCGGAUGCAGAGGUGGCAGCCUUCGGUGGCGCGAUAGCGCCAACGUUCUCAACUAUGACACGCCAAACGCGUGCUCCGUUGAAUGGAGUUUAUCAUG [A20C U33G C43A U45A C69U A119C], with ≤ -4.2.
In the case of GGAUCUUCUCGAUCUAACAGAAAAGACAAAUCUGCCACAAAGCUUGAGAGCAUCUUCGGAUGCAGAGUCGGCAGCCUUCGGUGGCGCGAUAGCGCCAACGUUCUCAACUAUGACACGCAAAACACGUGCUCCGUUGAAUGGAGUUUAUCAUG [A20G G68U G124A], the “polymerase ribozyme fitness (log ratio)” value is ≤ -4.2.
Turning to GGAUCUUCUCGAUCUAACAGAAAAGACAAAUCUGCCACAAAGCUUGAGAGCAUCUUCGGAUGCAGAGGCGGCAGCCUUCGGUGGCGCGAUAGCGCCAACGUUCUCAACUAUGACACGCAAAACGCGUGCUCCGUUGAAUAGAGGUUAUCAUG [A20G G140A U144G], the “polymerase ribozyme fitness (log ratio)” value was ≤ -4.2.
On to GGAUCUUCUCGAUCUAACAGAAAAGUCACAUCUGCCACAAAGCUUGAUAGCAUCGUCGGAUGCAGAGGCGGCAGCAGUCGGUGGCGCGAUAGCGCCAACGUUCUCAACUAUGACACGCAAAACGCGUGCUCCGUUGAAUGGAGUUUAUCCUG [A20G A26U A29C G48U U55G C76A U77G A150C], for which the “polymerase ribozyme fitness (log ratio)” value is ≤ -4.2.
